Some of the results follow. Repeats are few or missing, and single values can be far off.
Legend:
Assay in all cases: cell count relative to DMSO control; melanoma cells; higher = more viable cells
Conditions in all cases: library dose: standard library concentration; 72 h
[1] = tested on: SkMel28
[2] = tested on: SkMel2
[3] = tested on: SkMel30
[4] = tested on: SkMel5
[5] = tested on: UACC257
[6] = tested on: UACC62
[7] = tested on: WM115
[8] = tested on: WM1716
[9] = tested on: WM1745
[10] = tested on: WM3526
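Further: cells treated in 1,536-well plates, then fixed and DAPI-stained, with nuclei counted from automated high-throughput microscope images.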

SMILES | cell count [1] [%] | cell count [2] [%] | cell count [3] [%] | cell count [4] [%] | cell count [5] [%] | cell count [6] [%] | cell count [7] [%] | cell count [8] [%] | cell count [9] [%] | cell count [10] [%]
NC(=O)Nc1cc(-c2cccc(F)c2)sc1C(=O)N[C@H]1CCCNC1 + OCCn1cc(-c2cnc3nnn(Cc4ccc5ncccc5c4)c3n2)cn1 [PF04217903] (first compound 0.1 µM, partner dose 5 µM) | 28.9 | 92.1 | 66.9 | 118 | 107 | 104 | 99.4 | 83.7 | 68.6 | 69
Cc1nc(Nc2ncc(C(=O)Nc3c(C)cccc3Cl)s2)cc(N2CCN(CCO)CC2)n1 [dasatanib] + CCCCCCCCCCCC1=C(O)C(=O)C=C(O)C1=O [Embelin] (first compound 0.02 µM, partner dose 6 µM) | 84.2 | 77.8 | 65.2 | 66.6 | 80.7 | 71.4 | 65.1 | 44.3 | 42.8 | 72.8
NCC(=O)Nc1ccc(-n2nc(C(F)(F)F)cc2-c2ccc3c(ccc4ccccc43)c2)cc1 + COc1cc2c(Oc3ccc4[nH]c(C)cc4c3F)ncnc2cc1OCCCN1CCCC1 [cediranib] (first compound 5 µM, partner dose 2 µM) | 24 | 35.1 | 28.3 | 52.4 | 89.6 | 53.9 | 77.9 | 89 | 68.3 | 54.6
C[C@]1(c2nc3c(C(N)=O)cccc3[nH]2)CCCN1 [Veliparib] + N#Cc1c(O)c2c(-c3ccc(-c4ccccc4O)cc3)csc2[nH]c1=O [A769662] (first compound 7 µM, partner dose 10 µM) | 81.2 | 89 | 112 | 84.4 | 107 | 88.6 | 94 | 112 | 105 | 97.7
C=CCn1c(=O)c2cnc(Nc3ccc(N4CCN(C)CC4)cc3)nc2n1-c1cccc(C(C)(C)O)n1 + Cn1cc(/C=C2\C(=O)Nc3cccnc32)c2ccccc21 [GW441756] (first compound 0.1 µM, partner dose 2 µM) | 45.2 | 82.5 | 82.7 | 46.7 | 76.8 | 69.5 | 66.7 | 85.1 | 46.4 | 74.4
NCC(=O)Nc1ccc(-n2nc(C(F)(F)F)cc2-c2ccc3c(ccc4ccccc43)c2)cc1 + Cc1cc([N+](=O)[O-])ccc1NS(=O)(=O)c1cc(Cl)ccc1Cl [FH535] (first compound 5 µM, partner dose 5 µM) | 14.7 | 37 | 13.7 | 55.5 | 71.8 | 68 | 78 | 78.5 | 64 | 43.9
Cc1nc(Nc2ncc(C(=O)Nc3c(C)cccc3Cl)s2)cc(N2CCN(CCO)CC2)n1 [dasatanib] + COc1ccc(COc2ccc(Cc3cnc(N)nc3N)cc2OC)cc1 [GW2580] (first compound 0.02 µM, partner dose 5 µM) | 92.3 | 92.8 | 78.2 | 61.5 | 54.9 | 99.8 | 53.6 | 36.6 | 31.5 | 83.9
C[C@]1(c2nc3c(C(N)=O)cccc3[nH]2)CCCN1 [Veliparib] + COc1cc2ncnc(Nc3ccc(Oc4ccccc4)cc3)c2cc1OC [SrcI1] (first compound 7 µM, partner dose 10 µM) | 63.7 | 85.3 | 97.4 | 84.1 | 92.7 | 95.6 | 62.6 | 82.9 | 81.9 | 73.3
CO[C@@H]1[C@H](N(C)C(=O)c2ccccc2)C[C@H]2O[C@]1(C)n1c3ccccc3c3c4c(c5c6ccccc6n2c5c31)C(=O)NC4 [Midostaurin] + COc1cc2ncnc(Nc3ccc(Oc4ccccc4)cc3)c2cc1OC [SrcI1] (first compound 0.4 µM, partner dose 10 µM) | 75.5 | 64.4 | 66 | 48.3 | 63.9 | 60.5 | 54.6 | 52.8 | 21.4 | 42.2
Cc1nc(Nc2ncc(C(=O)Nc3c(C)cccc3Cl)s2)cc(N2CCN(CCO)CC2)n1 [dasatanib] + c1cc(-c2cnn3cc(-c4ccc(OCCN5CCCCC5)cc4)cnc23)ccn1 [Dorsomorphin] (first compound 0.02 µM, partner dose 2 µM) | 60.1 | 76.4 | 77.1 | 52 | 68.9 | 62.5 | 63.7 | 70.6 | 25.1 | 65.5
C[C@]1(c2nc3c(C(N)=O)cccc3[nH]2)CCCN1 [Veliparib] + COc1ccc(COc2ccc(Cc3cnc(N)nc3N)cc2OC)cc1 [GW2580] (first compound 7 µM, partner dose 5 µM) | 84.9 | 78 | 92 | 84.5 | 90.2 | 88.5 | 77.6 | 125 | 74.8 | 88.5

— the supplement of paper PMC4604168 (melanoma cell lines)
